PubChem BioAssay AID463173 (ICCB-Longwood Screening Facility, Harvard Medical School, 2010)
Hit rate of the full screen: of about 52,000 compounds, about 1,700 (3.3%) were called active. Cut-off read from the data, not from the text of the source: active = survival mostly below about 52% (no sharp cut-off); inactive = mostly above about 56%. The list shows a part of the results.

tested on: Wild type; test: S. aureus survival, RN4220 and DeltatarO strains – OD600, teichoic acid synthesis inhibitors, primary screen (AID 463173); conditions: S. aureus RN4220 wild type/DeltatarO growth, OD600, 18 h, hits give low values, screened at 18.75 µg/mL (by protocol)

For `CS(=O)(=O)N(CCC(=O)O)Cc1ccccc1`, which survival is on record?
The survival was inactive: 115%.

Which survival does the source give for `COc1ccc(NC(=O)CSc2nc3ccccc3nc2N2CCC(C)CC2)cc1` here?
The survival was inactive: 45%.

How did the survival turn out when `COc1ccc(CNC(=O)CN(c2ccc(C(C)C)cc2)S(=O)(=O)c2c(C)nn(C)c2C)cc1` was run?
The survival was inactive: 81%.

With `Cc1ccccc1NC(=O)Nc1nnc(N2CCCCCC2)s1` as the molecule, how does the survival read?
The survival was inactive: 97%.

`COc1ccccc1NC(=O)CCn1nc(-c2ccccc2OC)c2c(C)cc(C)nc21` was tested. Which survival did it give?
The survival was inactive: 111%.

With `Cc1ccccc1OCC(=O)OCc1cc(=O)n2nc(C3CC3)sc2n1` as the molecule, how does the survival read?
The survival was inactive: 81%.

How did the survival turn out when `CCC(=O)N1CCc2cc(Br)cc(S(=O)(=O)CCC(=O)N3CCN(c4ccc(F)cc4)CC3)c21` was run?
Its survival is inactive: 138%.

With `Cc1cc(C)c(C)c(OCC(=O)Nc2ccc(S(=O)(=O)Nc3nc(C)cc(C)n3)cc2)c1` as the molecule, how does the survival read?
Its survival is inactive: 76%.

For `CCc1ccc(NC(=O)CC2C(=O)N(c3cccc(C)c3)C(=O)N2CCC(C)C)cc1` (stereo unspecified), which survival is on record?
The survival was inactive: 72%.

Which survival does the source give for `CCOC(=O)C1CCCN(C(=O)C2CCN(S(=O)(=O)c3c(C)noc3/C=C/c3ccccc3F)CC2)C1` (stereo unspecified) here?
The survival was inactive: 80%.

`O=C(CSC1=Nc2ccccc2N=C(c2ccc(F)cc2)C1)Nc1cccc(C(F)(F)F)c1` was tested. Which survival did it give?
The survival was inactive: 67%.

With `COc1ccc(CN(Cc2ccccc2)Cc2nnnn2C(C)(C)C)cc1` as the molecule, how does the survival read?
The survival was inactive: 128%.

`COc1ccc(CC(=O)NCCc2sc3nc(-c4ccc(OC)cc4)nn3c2C)cc1` was tested. Which survival did it give?
The survival was inactive: 89%.

`CCCN(CCC)CCCNC(=O)c1cn(CC)c2ccc(S(=O)(=O)N(C)C3CCCCC3)cc2c1=O` was tested. Which survival did it give?
Its survival is inactive: 93%.

Which survival does the source give for `CCc1ccc(OCc2cc(=O)n3c4c(sc3n2)CCCC4)cc1` here?
The survival was inactive: 65%.

With `O=C(C1CCC1)N1CCCc2cc(S(=O)(=O)N3CCN(c4ccccc4)CC3)ccc21` as the molecule, how does the survival read?
Its survival is inactive: 71%.

`COc1cccc(N2CCN(C(=O)C3Cc4ccccc4N3C(C)=O)CC2)c1` (stereo unspecified) was tested. Which survival did it give?
The survival was inactive: 81%.

For `CCC(=O)Nc1ccccc1-c1nc2ccccc2n(CC(=O)c2ccc(Cl)cc2)c1=O`, which survival is on record?
The survival was inactive: 64%.

Which survival does the source give for `CCOC(=O)N1CCc2c(sc(NCc3cccc(F)c3)c2C(=O)Nc2ccc(OC)cc2OC)C1` here?
The survival was inactive: 68%.

Which survival does the source give for `CCNc1ncnc2c1nnn2C` here?
The survival was inactive: 65%.

For `CCOC(=O)c1c(C)[nH]c(CCC(=O)Nc2c(C)cccc2CC)c1C`, which survival is on record?
The survival was inactive: 73%.

For `Cc1cccc(-c2nc3ccccc3n2Cc2ccccc2)c1`, which survival is on record?
Its survival is active: 1%.

`CC(C)OC(=O)C(C(=O)C(F)(F)F)c1cc(NS(=O)(=O)c2ccc3c4c(cccc24)C(=O)N3)ccc1O` (stereo unspecified) was tested. Which survival did it give?
Its survival is inactive: 67%.

For `O=C(/C=C/c1ccco1)Nc1cc(C(=O)O)cc(C(=O)O)c1`, which survival is on record?
The survival was inactive: 115%.

For `Cc1ccc(S(=O)(=O)c2nnn3c2nc(NC(C)C)c2sccc23)cc1`, which survival is on record?
Its survival is inactive: 95%.

For `COc1ccc2c(Sc3ccc(C)cc3)c(C(=O)NCc3ccc(F)cc3)[nH]c2c1`, which survival is on record?
Its survival is inactive: 91%.

With `O=C(Cn1cnc2ccccc2c1=O)N1CCCCCC1` as the molecule, how does the survival read?
The survival was inactive: 104%.

`O=C(CSc1nnc(-c2ccncc2)n1Cc1ccco1)N(c1ccccc1)c1ccccc1` was tested. Which survival did it give?
The survival was inactive: 112%.

Which survival does the source give for `C=CCCC1(C)NNc2nc(=O)c(C)nn21` (stereo unspecified) here?
The survival was inactive: 111%.

How did the survival turn out when `COc1ccccc1NC(=O)C1=C(C)Nc2nc(CCCO)nn2C1c1cccc(O)c1` (stereo unspecified) was run?
Its survival is inactive: 150%.

For `O=C(CCCn1c(=O)c2ccccc2n(Cc2cccc(Cl)c2)c1=O)NCCc1ccc(Cl)cc1`, which survival is on record?
The survival was inactive: 92%.

`CCN(CC)c1ccc2ccc(=O)oc2c1` was tested. Which survival did it give?
The survival was inactive: 112%.

With `Cc1ccc(S(=O)(=O)N2CCCc3cc(NS(=O)(=O)c4cc(F)ccc4F)ccc32)cc1` as the molecule, how does the survival read?
Its survival is inactive: 128%.

For `CCOC(=O)c1ccc(N2C(=O)c3n[nH]c(-c4ccco4)c3C2c2ccc(OCC)cc2)cc1` (stereo unspecified), which survival is on record?
The survival was inactive: 64%.

For `CCCC(=O)Nc1cc(C(=O)NCc2ccccc2)ccc1S(=O)(=O)c1ccc(Cl)cc1`, which survival is on record?
Its survival is inactive: 78%.

With `O=C(CSc1nc2c(oc3ccccc32)c(=O)n1-c1ccccc1)Nc1ccccc1F` as the molecule, how does the survival read?
Its survival is inactive: 88%.

With `CC(C)c1ccc(NC(=O)CC2NCCNC2=O)cc1` (stereo unspecified) as the molecule, how does the survival read?
Its survival is inactive: 71%.

`O=C(Cn1cc(S(=O)(=O)N2CCCC2)c(S(=O)(=O)N2CCCC2)c1)Nc1ccccc1` was tested. Which survival did it give?
The survival was inactive: 68%.

For `O=C(Nc1cccc(NC(=O)c2ccccc2F)c1)c1ccccc1`, which survival is on record?
Its survival is inactive: 92%.

How did the survival turn out when `Cn1c(=O)c(=O)n(C)c2cc(S(=O)(=O)N3CCN(c4ccc(F)cc4)CC3)ccc21` was run?
The survival was inactive: 132%.

`COc1cc(C2CC(=O)c3cnc(N4CCN(CCO)CC4)nc3C2)cc(OC)c1OC` (stereo unspecified) was tested. Which survival did it give?
Its survival is inactive: 74%.

For `Cc1ccc(CN2CCCN(CC(=O)Nc3ccc(C)cc3C)S2(=O)=O)cc1`, which survival is on record?
Its survival is inactive: 85%.

`CSc1ccc(CCNC(=O)Cn2ccc3cc(S(=O)(=O)N4CCCCCC4)ccc32)cc1` was tested. Which survival did it give?
The survival was inactive: 136%.

How did the survival turn out when `O=C(Nc1nc2n(n1)C(c1ccc(F)cc1)C=C(c1ccccc1)N2)c1ccco1` (stereo unspecified) was run?
The survival was inactive: 31%.

Which survival does the source give for `O=c1c(-c2cc(-c3ccccc3)nc3c2COc2ccc(Cl)cc2-3)coc2ccc(F)cc12` here?
The survival was inactive: 65%.

For `Cc1c(Cl)cccc1NC(=O)c1ccc2c(c1)CCN2S(=O)(=O)c1ccccc1`, which survival is on record?
Its survival is inactive: 81%.

`CCCCSc1nnc2c(n1)OC(c1ccc(Br)s1)N(C(C)=O)c1ccccc1-2` (stereo unspecified) was tested. Which survival did it give?
Its survival is inactive: 61%.

Which survival does the source give for `CN(C)c1ccc(C(CNC(=O)c2ccccc2C(F)(F)F)N2CCOCC2)cc1` (stereo unspecified) here?
Its survival is inactive: 79%.

For `Cc1ccc(-c2noc(C3CCCN(S(=O)(=O)c4ccc5c(c4)OCCO5)C3)n2)cc1` (stereo unspecified), which survival is on record?
The survival was inactive: 113%.

`CN(C)CCNc1ncnc2c1cnn2-c1cccc(Cl)c1` was tested. Which survival did it give?
Its survival is inactive: 80%.

`COc1ccc(CNC(=O)C2CCCN(S(=O)(=O)c3cccc4nsnc34)C2)cc1` (stereo unspecified) was tested. Which survival did it give?
Its survival is inactive: 86%.

How did the survival turn out when `Nc1c(C(=O)Nc2ccc(OC(F)(F)F)cc2)sc2nc(-c3ccncc3)ccc12` was run?
Its survival is inactive: 93%.

Which survival does the source give for `Cc1nn2c(=O)cc(COC(=O)Cc3ccccc3)nc2s1` here?
Its survival is inactive: 80%.

`CCOc1ccccc1-c1noc(CSc2nnc(-c3ccccc3)n2-c2ccc(F)cc2)n1` was tested. Which survival did it give?
The survival was inactive: 117%.

For `Cn1nnnc1SCCCNCc1cc(Cl)ccc1OCc1ccc(F)cc1`, which survival is on record?
The survival was inactive: 80%.

How did the survival turn out when `COC(=O)c1c(NC(=O)c2nc(SCc3ccc(F)cc3)ncc2Cl)sc2c1CCCC2` was run?
Its survival is inactive: 81%.
